# Experimental data from PubChem BioAssay AID1768 (National Center for Advancing Translational Sciences (NCATS), 2009).
# Hit rate of the full screen: of about 270,000 compounds, about 620 (0.23%) were called active. The shares of active, inactive and inconclusive entries below differ from those in the screen. Calls follow the shape of the dose curve; as a rule, active = well fitted inhibition curve with a large enough effect in the polarisation, with a control signal flat (not every such curve was filed as active); inconclusive = small, poorly fitted or top-dose-only effect, or effect the other way, or a change in a side signal; inactive = no such curve, though single readings can be large or run the other way; the % refers to the polarisation. A potency beside an inconclusive call is a rough fit, not a confirmed value. A note “side channel” means that the fit belongs to a control or component signal, not to the main read-out.
# Biological target: Menin (Homo sapiens) (UniProt O00255)
# Test: qHTS Assay for Inhibitors Targeting the Menin-MLL Interaction in MLL Related Leukemias: Competition With Texas Red Labeled MLL-derived Mutant Peptide
# Conditions: fluorescence polarization; series mostly up to 61.6 µM
# Potency is read from the fitted curve at half-maximal effect; tags tell the direction and shape of the fitted curve or compound fluorescence and quenching.
# Sequence of UniProt O00255 (O00255 whole entry, looked up): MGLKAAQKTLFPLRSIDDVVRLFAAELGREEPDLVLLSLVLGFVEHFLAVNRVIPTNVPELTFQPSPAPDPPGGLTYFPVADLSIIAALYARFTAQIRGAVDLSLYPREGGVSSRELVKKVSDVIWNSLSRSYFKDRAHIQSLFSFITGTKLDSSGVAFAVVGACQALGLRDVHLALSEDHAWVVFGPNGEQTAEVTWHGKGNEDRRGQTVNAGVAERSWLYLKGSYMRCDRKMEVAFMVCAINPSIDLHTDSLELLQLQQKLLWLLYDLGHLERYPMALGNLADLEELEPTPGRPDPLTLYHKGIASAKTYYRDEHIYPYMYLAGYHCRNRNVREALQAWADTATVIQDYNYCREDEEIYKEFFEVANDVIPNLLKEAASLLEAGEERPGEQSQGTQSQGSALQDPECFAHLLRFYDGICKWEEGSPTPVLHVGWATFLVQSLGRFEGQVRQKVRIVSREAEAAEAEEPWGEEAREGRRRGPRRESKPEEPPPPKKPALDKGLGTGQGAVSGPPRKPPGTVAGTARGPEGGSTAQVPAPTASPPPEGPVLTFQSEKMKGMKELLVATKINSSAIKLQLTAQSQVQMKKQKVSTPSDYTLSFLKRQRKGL
row,SMILES,Potency
1,C=C1CCC[C@]2(C)C[C@H]3OC(=O)[C@H](CNCCc4ccccc4OC)C3CC12 (some centres not stated),"inconclusive: 25.1 µM [inhibitor, partial curve]"
2,c1ccc(-c2oc3ncnc(NCCN4CCOCC4)c3c2-c2ccccc2)cc1,inactive
3,O=C(Nc1ccc(-c2nc3ccccc3[nH]2)cc1)C1CCCO1 (configuration not stated),"inconclusive: 39.8 µM [inhibitor, single point]"
4,C/C(=N\NC(=O)c1ccc(O)cc1)c1ccc2c(c1)Nc1ccccc1S2,"inconclusive: 12.6 µM [quencher, side channel, partial curve]"
5,COc1ccc(C[C@H]2CN3C(=NC[C@@H]3C(C)C)N2CCNC(=O)c2ccc(C)c(Br)c2)cc1,"inconclusive: 3.16 µM [fluorescent, side channel, full curve]"
6,CCOC(=O)C1CCN(C(=O)c2cc3c(=O)n4ccccc4nc3n2C)CC1,"inconclusive: 7.94 µM [inhibitor, full curve, poor fit]"
7,CC(=O)Oc1ccc(C)cc1,inactive
8,COc1cc(/C=C/CN2CCC(Oc3ccc(C(=O)N4CCCC4)cc3)CC2)ccc1O,"inconclusive: 25.1 µM [inhibitor, single point]"
9,CC(=O)c1c(N2CCN(c3ccc(F)cc3)CC2)nc(=S)n(Cc2ccccc2)c1C,inactive
10,CCc1c2c(nc3c(C(C)C)cccc13)-c1cccc(=O)n1C2,inactive
11,Cc1cccc(NS(=O)(=O)c2nnc(NC(=O)c3ccc(C)c(C)c3)s2)c1,"inconclusive: 31.6 µM [quencher, side channel, single point]"
12,CC(=O)N[C@@H](CC(C)C)C(=O)N[C@@H](CC(C)C)C(=O)N[C@H](C=O)CCCN=C(N)N,inactive
13,CCOC(=O)c1c(NC(C)=O)sc2c(O)c(Br)ccc12,"inconclusive: 31.6 µM [quencher, side channel, single point]"
14,CCN(CC)S(=O)(=O)c1cc(C(=O)Nc2ccccc2C(=O)O)ccc1OC,"inconclusive: 39.8 µM [quencher, side channel, single point]"
15,COCCOc1ccc(C(F)(F)F)cc1Nc1nc2ccccc2o1,"inconclusive: 10 µM [quencher, side channel, partial curve]"
16,CSc1nsc(/C=C/Nc2ccc(C)c(C)c2)c1C#N,"inconclusive: 11.2 µM [quencher, side channel, partial curve]"
17,O=C(Nc1ccc(O)c2c(=O)cc(-c3ccccc3Cl)oc12)c1ccc(F)cc1,"inconclusive: 39.8 µM [inhibitor, single point]"
